According to the supplement of paper PMC10126150:
Values marked as one replicate rest on one cluster of the flow cell; about a third of the high ones do not repeat.

These sequences were tested on ATP (assay: switch fluorescence ratio, 500 uM ATP over buffer (Cy3 cluster intensity, sum of 5 cycles each) (fold (ratio)); higher = stronger signal-on switching upon ATP binding; sequences stand for … in TCGTCGGCAGCGTCAGATGTGTATAAGAGACAGTTTTTTTTTTTTTTTTTTTTTTTTT…TC). Conditions: aptamer strand: ATP DNA aptamer (quencher-CACCTGGGGGAGTATTGCGGAGGAAGG + anchor), 100 nM annealed; ATP concentration: 500 uM; one replicate.
Method in brief: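 Clusters with intensities outside 100-1000 RFU were excluded. The remaining Cy3-labelled switching-strand clusters on a modified Illumina MiSeq flow-cell had been annealed to 100 nM quencher-labelled ATP aptamer and imaged in selection buffer, then after 15 min with 500 uM ATP at 22 °C, for five cycles separated by NaOH stripping and re-annealing. The fluorescence ratio, averaged per switch-domain sequence, is each cluster's summed target-cycle Cy3 intensity over its summed buffer-cycle Cy3 intensity.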
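Further: ATP exposure 15 min at 22 °C before imaging.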

Row | Sequence | switch fluorescence ratio
1 | AGGGAAATCA | 0.987
2 | AGGGACTACC | 0.988
3 | AGGGAGGAAG | 0.983
4 | AGGGAGGCGC | 1.13
5 | AGGGAGTGTA | 1.03
6 | AGGGAGTTTA | 1.02
7 | AGGGATAGGA | 0.996
8 | AGGGATGTAT | 1.02
9 | AGGGATTATA | 0.97
10 | AGGGATTATG | 1.01
11 | AGGGCACA | 1.12
12 | AGGGCAGCC | 0.983
13 | AGGGCAGGTT | 2.61
14 | AGGGCCAACG | 1.03
15 | AGGGCCACTA | 1.03
16 | AGGGCCTGAA | 0.998
17 | AGGGCGACGT | 1.17
18 | AGGGCGCAGA | 0.992
19 | AGGGCGGGCG | 1.05
20 | AGGGGAGCCA | 0.954
21 | AGGGGCCAG | 0.961
22 | AGGGGCGAA | 0.989
23 | AGGGGGACA | 0.991
24 | AGGGGGACCA | 0.987
25 | AGGGGGATT | 1.01
26 | AGGGGTCGCT | 1.02

Row | Sequence | switch fluorescence ratio
27 | AGGGTACAC | 1.02
28 | AGGGTATGAC | 0.975
29 | AGGGTGCCTG | 1.06
30 | AGGGTGCGTA | 1.03
31 | AGGGTGCTGA | 0.989
32 | AGGGTGGT | 0.981
33 | AGGGTGTGGG | 1.03
34 | AGGGTGTTCT | 0.972
35 | AGGGTTCAGG | 1.02
36 | AGGGTTGGAT | 0.995
37 | AGGGTTTTAA | 1.01
38 | AGGTAAGGTG | 1.2
39 | AGGTACACCG | 1.02
40 | AGGTAGAATT | 1.01
41 | AGGTATAAAA | 1.01
42 | AGGTATAAGA | 0.994
43 | AGGTATAGAT | 1.05
44 | AGGTATAGGG | 0.976
45 | AGGTATATAT | 0.974
46 | AGGTCAGTCC | 0.997
47 | AGGTCATAAA | 1.01
48 | AGGTCGTGTG | 0.972
49 | AGGTCTGGTG | 0.995
50 | AGGTCTTTGG | 1.06
51 | AGGTCTTTTG | 0.98
52 | AGGTGAGTTT | 1.05

Row | Sequence | switch fluorescence ratio
53 | AGGTGCGTAA | 1.01
54 | AGGTGGACGC | 1.03
55 | AGGTGGATAT | 1.04
56 | AGGTGGCAA | 1.06
57 | AGGTGGCAAC | 1.02
58 | AGGTGGCAGA | 0.969
59 | AGGTGGGGAA | 1.04
60 | AGGTGGTGG | 1.03
61 | AGGTGTGGGG | 0.98
62 | AGGTTAATTC | 0.995
63 | AGGTTAGCG | 0.974
64 | AGGTTCAAAA | 1
65 | AGGTTCCTAC | 1.01
66 | AGGTTCGCCA | 0.972
67 | AGGTTCTCTT | 1
68 | AGGTTGGCGC | 0.956
69 | AGGTTGTCTC | 1.02
70 | AGGTTTCACA | 0.985
71 | AGGTTTCCGG | 0.965
72 | AGTAAACATC | 1.03
73 | AGTAACGGAG | 1.03
74 | AGTAATATTG | 1.25
75 | AGTAATGGCA | 0.94
76 | AGTACAAAGA | 0.972
77 | AGTACAGCCA | 1.08
78 | AGTACATGGT | 0.999

Row | Sequence | switch fluorescence ratio
79 | AGTACCTCCA | 1.08
80 | AGTACCTTGT | 1.06
81 | AGTACGATAA | 1.11
82 | AGTACTAATC | 0.987
83 | AGTAGCGACG | 0.971
84 | AGTAGCTCAT | 0.962
85 | AGTAGGTCGT | 0.995
86 | AGTAGGTGGG | 1.01
87 | AGTAGTCGGC | 0.938
88 | AGTAGTTACG | 1.1
89 | AGTATCCTAT | 0.994
90 | AGTATCGATC | 0.976
91 | AGTATGTAGA | 1.02
92 | AGTATGTATC | 0.998
93 | AGTATTACGC | 0.956
94 | AGTATTCTCC | 1.06
95 | AGTATTGATG | 0.984
96 | AGTCAAATAT | 1.04
97 | AGTCACCGTG | 1.04
98 | AGTCAGATCA | 0.991
99 | AGTCAGGGGA | 1.04
100 | AGTCAGGTCG | 1.04
101 | AGTCATCTCT | 0.98
102 | AGTCATCTGG | 1
103 | AGTCCACGGA | 1.03
104 | AGTCCAGATA | 0.986

Row | Sequence | switch fluorescence ratio
105 | AGTCCCTCG | 1
106 | AGTCCGACCT | 1.16
107 | AGTCCGCCTG | 1.09
108 | AGTCCGGAAA | 1.2
109 | AGTCCGTGTC | 1.09
110 | AGTCCGTTCT | 1.05
111 | AGTCCTACCT | 1.18
112 | AGTCCTATCA | 0.985
113 | AGTCCTGTTT | 0.979
114 | AGTCGACCAG | 1.04
115 | AGTCGCACAT | 1.02
116 | AGTCGCACTT | 0.978
117 | AGTCGCTC | 1
118 | AGTCGGAGCG | 1.01
119 | AGTCGGATTA | 0.936
120 | AGTCGGCCCG | 0.938
121 | AGTCGGCGCT | 1
122 | AGTCGGTTAT | 1.07
123 | AGTCGGTTTG | 0.965
124 | AGTCGTTGT | 0.986
125 | AGTCTAACCG | 1.01
126 | AGTCTGTCTG | 0.989
127 | AGTCTTGC | 1.02
128 | AGTCTTTTGG | 0.987
129 | AGTGAAAAGG | 0.986
130 | AGTGAAAGTA | 1

Row | Sequence | switch fluorescence ratio
131 | AGTGAAGGAA | 0.958
132 | AGTGACGCAG | 0.952
133 | AGTGAGCGG | 1.05
134 | AGTGATCTTC | 1.02
135 | AGTGCAAAAA | 2.75
136 | AGTGCAATAA | 2.89
137 | AGTGCATGG | 1.03
138 | AGTGCCATTC | 1.03
139 | AGTGCCGAGT | 0.93
140 | AGTGCGAGGG | 0.996
141 | AGTGCGGTAT | 1.04
142 | AGTGCTGGTA | 0.989
143 | AGTGCTGTTT | 0.956
144 | AGTGGAAAGC | 1.03
145 | AGTGGCGAGT | 0.988
146 | AGTGGGACGA | 1.04
147 | AGTGGGGACT | 0.974
148 | AGTGGGGCCT | 0.997
149 | AGTGGGTGCA | 0.988
150 | AGTGGTTCAC | 0.987
151 | AGTGGTTGGA | 0.971
152 | AGTGGTTTCG | 0.959
153 | AGTGTAACGG | 1.04
154 | AGTGTCGCCA | 0.973
155 | AGTGTCTCGA | 1.01
156 | AGTGTGCCGA | 0.972

Row | Sequence | switch fluorescence ratio
157 | AGTGTGCTTG | 0.982
158 | AGTGTGGGAT | 1.03
159 | AGTGTGTCAC | 1.04
160 | AGTGTGTTGT | 1.03
161 | AGTGTTGGTC | 1
162 | AGTTACAGCG | 0.988
163 | AGTTAGAACT | 1
164 | AGTTAGAGAG | 0.997
165 | AGTTAGGAC | 0.989
166 | AGTTATCTCG | 1.06
167 | AGTTCATGTT | 1
168 | AGTTCCAGT | 0.977
169 | AGTTCCGCGG | 1.03
170 | AGTTCGGGC | 0.975
171 | AGTTGAAG | 0.984
172 | AGTTGAATAT | 1.08
173 | AGTTGAGCAC | 1.04
174 | AGTTGAGGAG | 1.02
175 | AGTTGAGGCA | 0.982
176 | AGTTGCCCGT | 0.965
177 | AGTTGCTTAG | 0.969
178 | AGTTTAGAAA | 1.03
179 | AGTTTAGCCG | 1.08
180 | AGTTTATCCC | 0.973
181 | AGTTTATGAG | 1.02
182 | AGTTTATTTC | 1.02

Row | Sequence | switch fluorescence ratio
183 | AGTTTCATCC | 1.04
184 | AGTTTCGGGG | 1
185 | AGTTTGAGGG | 1.03
186 | AGTTTGATCG | 0.96
187 | AGTTTGGTC | 0.951
188 | AGTTTGGTCG | 0.953
189 | AGTTTTCAAA | 1
190 | ATAAAACATT | 0.974
191 | ATAAAAGGAC | 1.03
192 | ATAAAAGGCA | 0.963
193 | ATAAAATCTC | 1.01
194 | ATAAACATGA | 0.972
195 | ATAAACGAGT | 0.94
196 | ATAAACTGGG | 1.09
197 | ATAAAGACGA | 1
198 | ATAAAGGTGA | 1.09
199 | ATAAATTCCG | 0.95
200 | ATAACACCAA | 1.03
201 | ATAACATTGT | 1.06
